{
  "source": "PubChem BioAssay AID540267",
  "about": "(National Center for Advancing Translational Sciences (NCATS), 2011)",
  "note": "Out of some 340,000 compounds screened, about 530 (0.16%) were called active. This list was built around the results that the source calls inconclusive (neither active nor inactive); the mix of calls is not that of the screen. Rule as the data show it: active = activity change below about -80%; inconclusive = between about -30% and that limit; inactive = weaker than that. % is scaled to controls: 0 for no effect and ±100 for the full control effect.",
  "data": [
    {"test": "Small Molecules that selectively kill Giardia lamblia: qHTS;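 also: parasites exposed to compound for two days anaerobically before the ATP read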", "conditions": "Giardia lamblia trophozoite viability; at 7.66 µM; hits give low values", "excerpt": "Giardia lamblia is a human pathogen afflicting impoverished nations, and the most common cause of outbreaks of diarrhea in the United States. Giardia has been classified by the CDC as a category B bioterrorism organism. The favored anti giardiasis drugs in the US are metronidazole or tinidazole, compounds that have undesirable side effects. Moreover, increasing resistance to drug regimes and recurrence are a concern. It is thus clear that alternative drug treatments are needed.\nIn a collaboration between the University of Maryland, College Park and the NIH Chemical Genomics Center, a bioluminescence Giardia viability assay based on the trophozoites' ATP content was developed. This assay is suitable for high throughput screening, and miniaturized the assay for compound screening in 1536-well plates. The goal of the project is to screen the Molecular Libraries Small Molecule Repository (MLSMR) for compounds that selectively kill Giardia trophozoites.\nNIH Chemical Genomics Center [NCGC]\nNIH Molecular Libraries Probe Centers Network [MLPCN]\nAssay Submitter (PI): Osnat Herzberg, University of Maryland, College Park, MD.\n1. Dispense 2 ul/well media\n2. Dispense 23 nl/well compounds\n3. Dispense 4 ul/well Giardia trophozoites at a concentration of 100 cells/well\n4. […]\n5. Dispense 4 ul/well ATPLite 1-Step Luminescence assay kit […]\n7. Read luminescence signal on ViewLux plate reader", "values": [
      {"compound": "COC(=O)c1sc(-c2ccc(C(C)(C)C)cc2)cc1NC(=O)COCC(=O)O", "activity change": "inconclusive: -37.2% [inhibitor]"}
    ]}
  ]
}
